Test results taken from PubChem BioAssay AID887 (National Center for Advancing Translational Sciences (NCATS), 2007).
“And” between values parts separate entries of the source, which are not always exact repeats. Equal entries are not always repeated. Screen size: about 74,000 compounds; about 1,100 (1.5%) were called active. This list was built around the results that the source calls inconclusive (neither active nor inactive); the mix of calls is not that of the screen. The call rests on the fitted dose curve; in most records, active means well fitted inhibition curve with a large enough effect; inconclusive means small, poorly fitted or top-dose-only effect; inactive means no such curve, though single readings can be large or run the other way. Where the call is inconclusive, the potency comes from a doubtful curve fit.

Molecular target: Polyunsaturated fatty acid lipoxygenase ALOX15 (Homo sapiens) (UniProt P16050)
UniProt P16050, sequence (P16050 whole entry, looked up): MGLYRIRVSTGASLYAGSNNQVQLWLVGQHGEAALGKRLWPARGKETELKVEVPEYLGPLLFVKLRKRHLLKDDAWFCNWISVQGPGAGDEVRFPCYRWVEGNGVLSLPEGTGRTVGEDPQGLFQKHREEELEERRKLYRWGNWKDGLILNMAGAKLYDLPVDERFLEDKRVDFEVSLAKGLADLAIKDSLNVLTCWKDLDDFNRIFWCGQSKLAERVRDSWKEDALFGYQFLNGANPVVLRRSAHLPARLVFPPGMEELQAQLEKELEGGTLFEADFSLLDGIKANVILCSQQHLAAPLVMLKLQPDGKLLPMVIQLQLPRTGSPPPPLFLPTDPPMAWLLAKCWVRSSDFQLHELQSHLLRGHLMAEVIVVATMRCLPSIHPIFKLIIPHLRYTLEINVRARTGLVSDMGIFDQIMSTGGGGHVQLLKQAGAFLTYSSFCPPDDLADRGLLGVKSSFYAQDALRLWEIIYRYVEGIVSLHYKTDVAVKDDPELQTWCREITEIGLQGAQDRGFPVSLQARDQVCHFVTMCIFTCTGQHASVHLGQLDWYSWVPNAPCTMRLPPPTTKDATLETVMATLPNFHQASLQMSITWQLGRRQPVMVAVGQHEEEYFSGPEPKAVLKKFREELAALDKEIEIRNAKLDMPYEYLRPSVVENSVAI
Test: qHTS Assay for Inhibitors of 15-hLO (15-human lipoxygenase); further: nearly all actives have a fitted effect of over 55% in size
Settings: purified 15hLO-1, xylenol orange hydroperoxide absorbance; activity change, negative = inhibition: at 57.1 µM (top of the series) unless noted
Summary of the method: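 Purified human 15hLO-1 (40 nM final) in 25 mM Hepes pH 7.5, 0.01% Triton X-100 was preincubated with compound 15 min at room temperature, then reacted 6 min with 50 uM arachidonic acid; hydroperoxide detected by Fe-XO, 573/405 nm absorbance ratio.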
On the % scale 0 is the no-effect control and ±100 the full control effect; potency means the concentration at half of the fitted maximal effect; tags describe the fitted curve by direction and shape.

SMILES | Potency | activity change, negative = inhibition
Cc1ccc(C2C(C#N)=C(N)SC(N)=C2C#N)c(C)c1 | inconclusive: 0.794 µM [inhibitor, full curve, poor fit] | 
CC1=C(C(=O)Nc2ccccn2)C(c2ccccc2)n2ncnc2N1 (centres undefined) | inconclusive: 39.8 µM [inhibitor, single point] | 
COc1cccc(-c2cc(NCc3cccnc3)ncn2)c1 | inconclusive: 20 µM [inhibitor, single point] | 
Nc1ccc(N)c(Cl)c1 | inconclusive: 10 µM [inhibitor, partial curve, poor fit] | 
O=C(NCc1ccco1)c1ccc2nc3sc4c(c3c(=O)n2c1)CCCC4 | active: 31.6 µM | 
CC(C)NC(=O)N1CCCC2(CCN(C(=O)c3cccn3C)CC2)C1 | inconclusive: 31.6 µM [inhibitor, single point] | 
CCN(CC)CCCC(C)n1c(-c2ccccc2)nc2c(NCc3ccccc3)nc(C)nc21 (centres undefined) | inconclusive: 31.6 µM [inhibitor, single point] | 
O=S(=O)(Nc1ccc(N2CCCCC2)cc1)c1cccs1 | inactive | 
O=C1N(c2ccccc2)C2CS(=O)(=O)CC2N1c1ccc(Cl)c(Cl)c1 (centres undefined) | inactive | 
OC(CNCc1ccco1)Cn1c2ccccc2c2ccccc21 (centres undefined) | inconclusive: 39.8 µM [inhibitor, single point] | 
O=C(Nc1ccc(N2CCN(C(=O)c3ccccc3)CC2)cc1)c1cc2ccccc2o1 | inconclusive: 2.51 µM [inhibitor, full curve] | 
Cc1noc(C)c1-c1cc(N2CCNCC2)ncn1 | inactive | 
Cc1noc(C)c1-c1nc(Nc2ccccc2)c2ccccc2n1 | inconclusive: 25.1 µM [inhibitor, partial curve] | 
COc1cccc(-c2nc(N(C)Cc3ccco3)c3ccccc3n2)c1 | active: 10 µM | 
CN(C)S(=O)(=O)c1cccc(C(=O)C2=C3SC=C(c4ccccc4)N3CC2)c1 | inconclusive: 20 µM [inhibitor, single point] | 
O=C(C[C@@H](c1ccccc1)N1CCCCC1)c1ccccc1 |  | inactive: 4.99% [at 11.4 µM]
O=c1ccc2cc(O)c(O)cc2o1 | inconclusive: 10 µM [inhibitor, partial curve] | 
COc1ccc(CCN(C)CCCN2CCc3cc(OC)c(OC)cc3CC2=O)cc1OC | inconclusive: 0.0251 µM [inhibitor, full curve, poor fit] | 
O=S(=O)(c1ccccc1)N1CCC2(CCCN(c3ccncc3)C2)CC1 | inactive | 
C=CCn1c(-c2ccco2)n[nH]c1=S | inconclusive: 3.98 µM [inhibitor, partial curve] | 
N#CCCn1nc(-c2ccccc2)cc1Nc1ccccc1NC(=O)c1cccs1 | inconclusive: 25.1 µM [inhibitor, partial curve] | 
CCNc1ncc2nc(-c3cc(F)cc(F)c3)c(=O)n(C[C@H]3CCCO3)c2n1 | inactive | 
COc1ccc(/C=N/n2c(SC)nnc2-c2ccccc2)cc1C | inactive | 

SMILES | Potency | activity change, negative = inhibition
Cc1cccc(Cn2cnc3c(nnn3Cc3ccccc3F)c2=O)c1 | inactive | 
Cc1nc2nc(C)n(-c3ccccc3)c2s1 | inconclusive: 31.6 µM [inhibitor, single point] | 
C[C@@](N)(Cc1ccc(O)c(O)c1)C(=O)O | inconclusive: 794 nM [inhibitor, full curve] and inconclusive: 3.16 µM [inhibitor, full curve] | 
O/N=C(\c1ccc(Cl)cc1)c1cc2ccccc2o1 | inconclusive: 25.1 µM [inhibitor, single point] | 
CCCc1cc(=O)oc2cc(OCC(=O)OC)cc(OCC(=O)OC)c12 | inconclusive: 3.98 µM [inhibitor, single point] | 
CCOc1ccc(-c2[nH]ncc2Oc2ccccc2OCC)c(O)c1 | inconclusive: 20 µM [inhibitor, partial curve] | 
N#Cc1c(-c2ccco2)cc(-c2cccnc2)nc1N | active: 7.94 µM | 
CCN(CC)C(=O)c1cc(-c2ccccc2OC)on1 | inconclusive: 39.8 µM [inhibitor, single point] | 
C=CCN1CCc2c(cc(O)c(O)c2Br)[C@H](c2ccccc2)C1 | inconclusive: 15.8 µM [inhibitor, partial curve] | 
CC(C)=CC(=O)OCC(=O)NC(=O)NC(C)(C)C | inconclusive: 0.0126 µM [inhibitor, full curve, poor fit] | 
COc1ccccc1N1CCN(C(=O)CCNS(=O)(=O)c2ccc3c(c2)CCC(=O)N3)CC1 | inconclusive: 31.6 µM [inhibitor, single point] | 
CC1(COc2ccc(C[C@H]3SC(=O)NC3=O)cc2)CCCCC1 | inconclusive: 15.8 µM [inhibitor, single point] | 
CCCc1cc(C(N)=O)c(NC(=O)c2cc(C)on2)s1 | inconclusive: 31.6 µM [inhibitor, single point] | 
CCN(CC)c1nc(N)c2c(N)n(-c3ccccc3C)c(=S)c(C#N)c2c1C#N | inconclusive: 25.1 µM [inhibitor, single point] | 
Cn1c(=O)n(C/C=C/c2ccccc2)c(=O)c2c1nc1n2CCCN1Cc1ccccc1 | inconclusive: 25.1 µM [inhibitor, partial curve, poor fit] | 
CNc1ncncc1-c1ccccc1C(F)(F)F | inconclusive: 20 µM [inhibitor, partial curve] | 
OCCN1CCN(c2ncnc3nc[nH]c23)CC1 | inconclusive: 31.6 µM [inhibitor, single point] | 
O=C1c2ccccc2C(Nc2cccc(C(F)(F)F)c2)N1Cc1ccco1 (centres undefined) | inconclusive: 25.1 µM [inhibitor, single point] | 
CCN(CC)c1ccc(NC(=O)c2cccc(C)c2OC)c(C)c1 | inconclusive: 7.94 µM [inhibitor, partial curve] | 
CCCC(c1nnnn1Cc1ccc(F)cc1)N1CCN(C2CCCCC2)CC1 (centres undefined) | inconclusive: 39.8 µM [inhibitor, single point] | 
Cc1cc(NC(=O)c2ccccc2Oc2ccccc2)no1 | inactive | 
CSc1cccc(-n2c(C)cc(C(N)=O)c2C)c1 | inconclusive: 39.8 µM [inhibitor, single point] | 
CCOc1cccc(=O)c2c(C)n(CC3CCCO3)c(C)c12 (centres undefined) | inconclusive: 15.8 µM [inhibitor, partial curve] | 

SMILES | Potency | activity change, negative = inhibition
Cc1ccc(N(Cc2cc(=O)[nH]c3ccccc23)C(=O)c2ccco2)cc1 | inconclusive: 31.6 µM [inhibitor, single point] | 
O=C(NCc1cccs1)C(Cc1ccccc1)n1cccc1 (centres undefined) | inconclusive: 20 µM [inhibitor, single point] | 
Cc1noc(C)c1COC(=O)CN(C)S(=O)(=O)c1ccc(Cl)cc1 | inconclusive: 0.398 µM [inhibitor, single point] | 
COc1ccc(-c2[nH]nc3c2C(c2ccncc2)C(C#N)=C(N)O3)cc1 (centres undefined) | inconclusive: 10 µM [inhibitor, partial curve] | 
Cc1ccccc1OCc1nnc(SCC(=O)Nc2ccc3c(c2)OCO3)n1C | inconclusive: 39.8 µM [inhibitor, single point] | 
COC(=O)CSC1=C(C#N)C(c2ccccc2OC)C(C(=O)OC)C(=O)N1 (centres undefined) |  | inactive: -4.29% [at 11.4 µM]
CC(=O)Nc1cccc(NC(=O)CSc2nnc(Cc3cccn3C)n2-c2ccc(F)cc2)c1 | inactive | 
Cc1ccc(S(=O)(=O)C(C#N)c2nc3ccccc3nc2N2CCCC2)cc1 (centres undefined) | inconclusive: 15.8 µM [inhibitor, partial curve] | 
O=C(Nc1ccc2oc(-c3ccccc3F)nc2c1)c1cncc(Br)c1 | inactive | 
Cc1ccc2[nH]c(=O)c(CN(Cc3ccc4c(c3)OCO4)Cc3nnnn3Cc3ccco3)cc2c1 | inconclusive: 12.6 µM [inhibitor, partial curve] | 
CCOC(=O)COc1cccc2c(=O)n(CC(=O)NCc3ccc4c(c3)OCO4)ccc12 | inactive | 
Cc1cnc(CNc2cc(-c3ccc(C(=O)N(C)C)cc3)ncn2)cn1 | inconclusive: 31.6 µM [inhibitor, single point] | 
CN(C)c1oc(-c2ccco2)nc1C#N | inactive | 
COCCn1c(SCC(=O)N2CCCc3ccccc32)nc2cccnc21 | inconclusive: 20 µM [inhibitor, partial curve] | 
Cn1cccc1C(=O)N1CCC2(CC1)CCN(c1cccc(-c3ccccc3)c1)CC2 | inactive | 
COc1ccc2c(c1)Cc1sc(NC(=O)c3cccs3)nc1-2 | active: 31.6 µM | 
Cc1c(/N=C/c2ccco2)n(Cc2ccccc2)c2ccccc12 | inconclusive: 3.98 µM [inhibitor, partial curve] | 
CCN1C(=O)[C@H]2[C@H]3[C@H](O)[C@H](O)C/C(=N/O[C@@H]4O[C@@H](COC(C)=O)[C@@H](OC(C)=O)[C@@H](OC(C)=O)[C@H]4OC(C)=O)[C@@H]3CC[C@@H]2C1=O |  | inactive: -11.2% [at 11.4 µM]
Cc1ccc2c(c1)-c1cc(C)nn1C(c1sccc1C)N2 (centres undefined) | inconclusive: 20 µM [inhibitor, single point] | 
O=S(=O)(NCCN1CCCC1)c1cccc2cccnc12 | active: 10 µM | 
COC(=O)[C@@H]1C2CC3c4[nH]c5cc(OC)ccc5c4CCN3CC2C[C@H](OC(=O)c2cc(OC)c(OC)c(OC)c2)C1OC (some centres undefined) | inconclusive: 31.6 µM [inhibitor, single point] | 
O=C(/C=C/c1ccc(O)cc1)c1cccs1 | inconclusive: 15.8 µM [inhibitor, single point] | 
Cc1ccc(CNC(=O)CCS(=O)(=O)c2cc(Br)cc3c2N(C(=O)C2CC2)CC3)o1 | inconclusive: 39.8 µM [inhibitor, single point] | 
